Screen size: about 360,000 compounds; about 660 (0.18%) were called active. This list was built around the results that the source calls inconclusive (neither active nor inactive); the mix of calls is not that of the screen. Calls follow the shape of the dose curve; as a rule, active = well fitted inhibition curve with a large enough effect; inconclusive = small, poorly fitted or top-dose-only effect; inactive = no such curve, though single readings can be large or run the other way. Potencies of inconclusive entries are left out as doubtful fits.
Each compound was assayed against Rap guanine nucleotide exchange factor 4 (Homo sapiens) (UniProt Q8WZA2) (assay: qHTS for Antagonist of cAMP-regulated guanine nucleotide exchange factor 2 (EPAC2): primary screen). Conditions: EPAC2 GEF exchange of Rap1B-BODIPY-GDP, fluorescence; activity, negative = inhibition: at 114 µM (top of the series) unless noted.
Chain of UniProt Q8WZA2 (Q8WZA2 whole entry, looked up): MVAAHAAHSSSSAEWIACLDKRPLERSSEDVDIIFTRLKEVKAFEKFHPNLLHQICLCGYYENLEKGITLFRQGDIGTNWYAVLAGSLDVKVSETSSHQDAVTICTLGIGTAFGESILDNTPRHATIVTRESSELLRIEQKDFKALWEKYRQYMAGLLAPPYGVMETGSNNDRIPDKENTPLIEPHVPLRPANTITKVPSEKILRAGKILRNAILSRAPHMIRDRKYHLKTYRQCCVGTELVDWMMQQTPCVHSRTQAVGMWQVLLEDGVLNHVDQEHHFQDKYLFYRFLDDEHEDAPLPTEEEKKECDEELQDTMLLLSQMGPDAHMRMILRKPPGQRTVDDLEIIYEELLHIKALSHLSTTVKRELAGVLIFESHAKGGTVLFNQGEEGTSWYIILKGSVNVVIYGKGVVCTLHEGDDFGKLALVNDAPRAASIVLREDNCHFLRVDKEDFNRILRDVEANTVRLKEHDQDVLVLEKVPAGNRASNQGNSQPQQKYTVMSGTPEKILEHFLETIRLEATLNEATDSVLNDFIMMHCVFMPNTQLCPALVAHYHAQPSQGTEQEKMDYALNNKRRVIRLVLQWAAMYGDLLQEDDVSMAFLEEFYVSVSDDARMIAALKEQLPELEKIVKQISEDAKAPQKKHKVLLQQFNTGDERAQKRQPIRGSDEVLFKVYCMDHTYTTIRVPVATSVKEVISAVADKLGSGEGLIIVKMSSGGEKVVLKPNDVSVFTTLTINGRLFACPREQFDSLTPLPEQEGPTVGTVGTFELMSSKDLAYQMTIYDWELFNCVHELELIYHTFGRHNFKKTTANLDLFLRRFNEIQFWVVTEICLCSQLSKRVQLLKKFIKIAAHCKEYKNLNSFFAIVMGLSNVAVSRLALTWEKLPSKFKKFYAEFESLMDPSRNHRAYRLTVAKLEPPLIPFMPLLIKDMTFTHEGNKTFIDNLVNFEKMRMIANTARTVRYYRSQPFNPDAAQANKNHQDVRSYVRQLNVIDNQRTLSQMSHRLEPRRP
% is scaled to controls: 0 for no effect and ±100 for the full control effect; potency is read from the fitted curve at half-maximal effect; tags tell the direction and shape of the fitted curve.
Also: nearly all actives have a fitted effect of over 45% in size.

| SMILES | Potency | activity, negative = inhibition |
| --- | --- | --- |
| CC(=O)N1CCN(C(=O)c2[nH]c(C(F)(F)F)nc2-c2ccccc2)CC1 | inconclusive [inhibitor, single point] | – |
| Cc1ccccc1C(=O)N1c2ccccc2OCC1C(C)(C)C (stereo not drawn) | inconclusive [inhibitor, full curve, poor fit] | – |
| O=C(N/N=C/c1ccc(O)c([N+](=O)[O-])c1)C1CC1(c1ccccc1)c1ccccc1 (stereo not drawn) | inconclusive [inhibitor, partial curve] | – |
| CCCCc1ccc(NC(=O)CC(C)(C)C)cc1 | inactive | – |
| CCOc1ccc(-n2cnnn2)cc1S(=O)(=O)NC1CC1 | inactive | – |
| O=C(CCc1nnc(CCCc2ccccc2)o1)NCC(F)(F)F | inactive | – |
| CCCn1c(CNc2ccc(Br)cc2)nc2ccccc21 | inconclusive [inhibitor, full curve] | – |
| Oc1ccc(CN2CCCc3ccccc32)c2cccnc12 | inactive | – |
| COc1ccc(-c2[nH]ncc2CN2CCC(O)(c3ccc(Cl)cc3)CC2)cc1 | inactive | – |
| CCCCc1c(-c2ccc(F)cc2)ncn1CCc1ccccc1OC | inconclusive [inhibitor, full curve] | – |
| C=CCOC(=O)C1=C(C)NC(=O)NC1c1ccc(Cl)cc1 (stereo not drawn) | inconclusive [inhibitor, partial curve] | – |
| CC(C)(C)NCC(=O)N/N=C/c1ccc(OCc2ccccc2)cc1 | inactive | – |
| O=C(c1ccccc1)C1C(c2ccccc2)C1[N+](=O)[O-] (stereo not drawn) | inconclusive [inhibitor, partial curve] | – |
| O=C1C2CCCN2C(c2ccccc2F)N1c1cccc(Cl)c1 (stereo not drawn) | inconclusive [inhibitor, single point] | – |
| OCc1c(OCc2cccc(F)c2)ccc2ccccc12 | inconclusive [inhibitor, partial curve] | – |
| COC(=O)C1C2C=CC3(CN(CC4CCCO4)C(=O)C13)O2 (stereo not drawn) | inactive | – |
| Oc1ccc(Br)cc1-c1n[nH]c(=S)n1Cc1ccccc1 | inconclusive [inhibitor, partial curve] | – |
| Cc1cc(C)c(S(=O)(=O)/N=C2/C=C(Sc3ncn[nH]3)C(=O)c3ccccc32)cc1C | inconclusive [inhibitor, single point] | – |
| CC(=O)Nc1ccc(NC(=O)C(C)OC(=O)C2(c3ccc(F)cc3)CCCC2)cc1 (stereo not drawn) | inconclusive [inhibitor, partial curve] | – |
| CCOC(=O)C1=CCN(S(=O)(=O)c2ccccc2Br)C1c1cccc(Cl)c1 (stereo not drawn) | inactive | – |
| Cc1nn(C(C)C)c(C)c1[C@@H]1C[C@H]2CN(Cc3cccc(Cl)c3)C(=O)[C@]23CCCN13 | inactive | – |
| CC1=Nc2ccccc2/C1=C/c1c(N)n2c(S(=O)(=O)CC(C)C)nsc2nc1=O | inconclusive [inhibitor, partial curve] | – |
| CC1(C(=O)Nc2cccc3ccccc23)CCN1C(=O)C1(c2ccccc2)CCCC1 (stereo not drawn) | inactive | – |

| SMILES | Potency | activity, negative = inhibition |
| --- | --- | --- |
| COc1ccc(CNc2nc3nc(C)c(Cl)c(C)n3n2)cc1 | inactive | – |
| N#Cc1ccc(CSc2ccccn2)c(Cl)c1 | inconclusive [inhibitor, full curve] | – |
| CCCCCCCCN1C(=O)[C@H](CC(=O)NCc2ccc(C)o2)C[C@@]2(C(=O)OC)CC(C)(C)CC=C12 | inconclusive [inhibitor, partial curve, poor fit] | – |
| O=S(=O)(Nc1nc2ccc(Cl)cc2s1)c1cccs1 | inconclusive [inhibitor, partial curve] | – |
| COc1ccc(-c2nc3ccc(Br)cn3c2Cc2cccc(Cl)c2)cc1OC | inconclusive [inhibitor, single point] | – |
| CCOc1ccc(S(=O)(=O)N2CCCC2)c2ccccc12 | inconclusive [inhibitor, full curve] | – |
| O=c1c2ccccc2sn1-c1ccccc1 | inactive | – |
| Cn1c(N)c(C(=O)COC(=O)c2ccccc2C(=O)c2ccc(Cl)cc2)c(=O)n(C)c1=O | inconclusive [inhibitor, partial curve] | – |
| COc1ccc(/C=N/OC(=O)Nc2ccccc2OC)cc1 | inconclusive [inhibitor, full curve, poor fit] | – |
| COC(=O)CCCC1=CC2=C(c3ccccc3)C(=O)C(C)(OC(=O)C3CCCC3)C(=O)C2=CN1C1CCCC1 (stereo not drawn) | inactive | – |
| NS(=O)(=O)c1ccc(-c2cccc(/C=C3\SC(=O)NC3=O)c2)cc1 | inconclusive [inhibitor, full curve] | – |
| Cc1cccc(C)c1-n1cccc1/C=C1\SC(=S)N(c2cccc(C(=O)O)c2)C1=O | inconclusive [inhibitor, partial curve] | – |
| COc1ccc(C(C)=NNc2ccc([N+](=O)[O-])cc2S(=O)(=O)Nc2ccccc2C(=O)O)c(OC)c1 | inconclusive [inhibitor, partial curve] | – |
| CC1CCN(c2nc(N(C)c3ccccc3)nc(N)c2[N+](=O)[O-])CC1 | inconclusive [inhibitor, partial curve] | – |
| COc1cccc(-n2nc(-c3ccnn3-c3ccccc3)c(=O)n(C)c2=O)c1 | inconclusive [inhibitor, partial curve] | – |
| Cc1cccc(OC(C)C(=O)Nc2nc(-c3ccncc3)cs2)c1 (stereo not drawn) | – | inconclusive: -13% [inhibitor] |
| O=C(O)CCCCCCCCCCCc1ccccc1 | inconclusive [inhibitor, partial curve] | – |
| CSc1ccc(CN2CCC2(C)C(=O)NC2CCc3ccccc32)cc1 (stereo not drawn) | inactive | – |
| COc1ccc(CN2CCN(c3nc4ccccc4s3)CC2)cc1 | inactive | – |
| CCC1=Nc2cc(C(=O)NCCCN3CCOCC3)ccc2Sc2ccc(Br)cc21 | inconclusive [inhibitor, partial curve] | – |
| COc1cccc(OC)c1NC(=O)c1ccc(-c2cc(Cl)ccc2Cl)o1 | inconclusive [inhibitor, partial curve] | – |
| CCc1nc2c(OCc3ccc(C#N)cc3)cccn2c1N(C)C(=O)c1ccc(C)cc1 | inconclusive [inhibitor, partial curve] | – |
| CC1Sc2ccc(C#N)cc2N(Cc2cccc(C(F)(F)F)c2)C1=O (stereo not drawn) | inconclusive [inhibitor, full curve] | – |

| SMILES | Potency | activity, negative = inhibition |
| --- | --- | --- |
| O=C(O)c1ccc(/C=N/N2CCN(Cc3cccc4ccccc34)CC2)cc1 | inconclusive [inhibitor, partial curve] | – |
| CCCCCCCCN1C(=O)[C@H](CC(=O)NCCc2ccccc2OC)C[C@@]2(C(=O)OC)CC(C)(C)CC=C12 | inconclusive [inhibitor, full curve] | – |
| COc1ccc(-c2cc(C(F)(F)F)nc(SCC(=O)NCc3cnn(C)c3C)n2)cc1OC | inactive | – |
| COc1ccc(C(C#N)=C2C=C(Cl)C(=NO)C=C2Cl)cc1 | inconclusive [inhibitor, full curve] | – |
| CCOC(=O)c1c(-c2ccc(F)cc2)csc1NC(=O)C1CCCO1 (stereo not drawn) | inconclusive [inhibitor, partial curve] | – |
| COc1cc(C2c3cc4c(cc3C(OC3OC5COC(c6cccs6)OC5C(O)C3O)C3COC(=O)C23)OCO4)cc(OC)c1O (stereo not drawn) | inconclusive [inhibitor, single point] | – |
| CCc1nc2c(OCc3ccc(C(=O)OC)cc3)cccn2c1N(C)C(=O)c1ccc(C)cc1 | inconclusive [inhibitor, full curve] | – |
| Cc1ccc(C2/C=C\CC(NC(=O)OCC3c4ccccc4-c4ccccc43)CC(=O)N2Cc2ccccc2)cc1 (stereo not drawn) | inactive | – |
| CCCC(=Nc1ccc(N)cc1)C1=C(O)C(C(=O)OC)C(C)(C)CC1=O (stereo not drawn) | inactive | – |
| CC1CCc2c(sc3nc(C(C)(C)C)nc(N4CCN(C(=O)CCl)CC4)c23)C1 (stereo not drawn) | inconclusive [inhibitor, full curve] | – |
| Cc1ccc2[nH]c(CCN(C)C)c(CN3CCOCC3)c2c1 | inactive | – |
| O=C(c1ccc(S(=O)(=O)c2ccccc2Cl)c([N+](=O)[O-])c1)N1CCN(Cc2ccccc2)CC1 | inactive | – |
| C=CCN(C(=O)Cn1ncc2c1-c1cc(C)ccc1OC2)c1ccccc1 | inconclusive [inhibitor, partial curve] | – |
| CC(C)CSc1oc(-c2ccco2)nc1S(=O)(=O)c1ccccc1 | inconclusive [inhibitor, full curve] | – |
| COc1nc(N(C)S(=O)(=O)c2ccc(C)cc2)nc(C)c1Br | inactive | – |
| N#Cc1c(NC(=O)c2ccccc2)sc2c1CCCCC2 | inconclusive [inhibitor, single point] | – |
| COC1=CC(=O)C(O)=C(CCCCCCC/C=C/CCCCCCCC2=C(O)C(=O)C=C(OC)C2=O)C1=O | inconclusive [inhibitor, partial curve] | – |
| CCCCOC(=O)COc1ccc(Cl)cc1Cl | inconclusive [inhibitor, full curve] | – |
| C=C(CCO)C1=CCN(S(=O)(=O)C(C)(C)C)[C@H]1CCO | inconclusive [inhibitor, full curve, poor fit] | – |
| COc1cnc(-c2ccccn2)nc1Oc1ccc(C(C)(C)C)cc1 | inconclusive [inhibitor, partial curve] | – |
| Cc1c(N2C(=O)/C(=C/c3ccc(N(C)C)cc3)N(C)C2=S)c(=O)n(-c2ccccc2)n1C | inconclusive [inhibitor, partial curve] | – |
| O=C1c2ccccc2NC(c2ccc(F)cc2)N1Cc1ccccc1 (stereo not drawn) | inconclusive [inhibitor, single point] | – |
